This is one part of the list.
Key:
Test in all cases: glycan array binding signal (z-score within array); higher = stronger binding
Details in all cases: glycan notation: IUPAC condensed, linker removed
Gal3S(b1-4)Glc = molecular target: Gal3S(b1-4)Glc
How it was run: (§1)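 Negative Z-scores can be read as non-binding. The Z-score is calculated within each array and then averaged across arrays of one protein sequence at different concentrations or buffers and across linkers. Arrays, 3228 in all, were curated from the Consortium for Functional Glycomics database and kept only where the protein sequence was available.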

Gal3S(b1-4)Glc6S = molecular target: Gal3S(b1-4)Glc6S
How it was run: as §1

Gal3S(b1-4)GlcNAc = molecular target: Gal3S(b1-4)GlcNAc
How it was run: as §1

Gal3S(b1-4)GlcNAc6S = molecular target: Gal3S(b1-4)GlcNAc6S
How it was run: as §1

Gal3S6S(b1-4)GlcNAc = molecular target: Gal3S6S(b1-4)GlcNAc
How it was run: as §1

Gal3S6S(b1-4)GlcNAc6S = molecular target: Gal3S6S(b1-4)GlcNAc6S
How it was run: as §1

Gal4S(b1-4)GlcNAc = molecular target: Gal4S(b1-4)GlcNAc
How it was run: as §1

Gal4S6S(b1-4)GlcNAc = molecular target: Gal4S6S(b1-4)GlcNAc
How it was run: as §1

Gal6S(b1-4)Glc = molecular target: Gal6S(b1-4)Glc
How it was run: as §1

Gal6S(b1-4)Glc6S = molecular target: Gal6S(b1-4)Glc6S
How it was run: as §1

Gal6S(b1-4)GlcNAc = molecular target: Gal6S(b1-4)GlcNAc
How it was run: as §1

GalNAc(a1-3)Gal = molecular target: GalNAc(a1-3)Gal
How it was run: as §1

GalNAc(a1-3)GalNAc = molecular target: GalNAc(a1-3)GalNAc
How it was run: as §1

[1] = molecular target: GalNAc(b1-3)Gal(a1-4)Gal(b1-4)GlcNAc
How it was run: as §1

GalNAc(b1-4)GlcNAc = molecular target: GalNAc(b1-4)GlcNAc
How it was run: as §1

Glc(a1-4)Glc = molecular target: Glc(a1-4)Glc
How it was run: as §1

Glc(a1-6)Glc(a1-6)Glc = molecular target: Glc(a1-6)Glc(a1-6)Glc
How it was run: as §1

Glc(b1-4)Glc = molecular target: Glc(b1-4)Glc
How it was run: as §1

Glc(b1-6)Glc = molecular target: Glc(b1-6)Glc
How it was run: as §1

GlcA(b1-3)Gal = molecular target: GlcA(b1-3)Gal
How it was run: as §1

GlcA(b1-6)Gal = molecular target: GlcA(b1-6)Gal
How it was run: as §1

[2] = molecular target: GlcNAc(a1-3)Gal(b1-4)GlcNAc
How it was run: as §1

[3] = molecular target: GlcNAc(a1-6)Gal(b1-4)GlcNAc
How it was run: as §1

[4] = molecular target: GlcNAc(b1-2)Gal(b1-3)GlcNAc
How it was run: as §1

[5] = molecular target: GlcNAc(b1-2)Man(a1-3)[GlcNAc(b1-2)Man(a1-6)]Man(b1-4)GlcNAc(b1-4)GlcNAc
How it was run: as §1

GlcNAc(b1-3)Gal = molecular target: GlcNAc(b1-3)Gal
How it was run: as §1

[6] = molecular target: GlcNAc(b1-3)Gal(b1-3)GalNAc
How it was run: as §1

GlcNAc(b1-3)Gal(b1-4)Glc = molecular target: GlcNAc(b1-3)Gal(b1-4)Glc
How it was run: as §1

[7] = molecular target: GlcNAc(b1-3)Gal(b1-4)GlcNAc
How it was run: as §1

[8] = molecular target: GlcNAc(b1-3)Gal(b1-4)GlcNAc(b1-3)Gal(b1-4)GlcNAc
How it was run: as §1

GlcNAc(b1-3)GalNAc = molecular target: GlcNAc(b1-3)GalNAc
How it was run: as §1

[9] = molecular target: GlcNAc(b1-3)[GlcNAc(b1-4)][GlcNAc(b1-6)]GlcNAc
How it was run: as §1

[10] = molecular target: GlcNAc(b1-3)[GlcNAc(b1-6)]Gal(b1-4)GlcNAc
How it was run: as §1

[11] = molecular target: GlcNAc(b1-3)[GlcNAc(b1-6)]GlcNAc
How it was run: as §1

[12] = molecular target: GlcNAc(b1-4)Gal(b1-4)GlcNAc
How it was run: as §1

[13] = molecular target: GlcNAc(b1-4)GlcNAc(b1-4)GlcNAc
How it was run: as §1

[14] = molecular target: GlcNAc(b1-4)GlcNAc(b1-4)GlcNAc(b1-4)GlcNAc(b1-4)GlcNAc
How it was run: as §1

B1: FBG4 (Homo sapiens), Q96EF6 (protein)
chain: MGARLSRRRLPADPSLALDALPPELLVQVLSHVPPRSLVTRCRPVCRAWRDIVDGPTVWLLQLARDRSAEGRALYAVAQRCLPSNEDKEEFPLCALARYCLRAPFGRNLIFNSCGEQGFRGWEVEHGGNGWAIEKNLTPVPGAPSQTCFVTSFEWCSKRQLVDLVMEGVWQELLDSAQIEICVADWWGARENCGCVYQLRVRLLDVYEKEVVKFSASPDPVLQWTERGCRQVSHVFTNFGKGIRYVSFEQYGRDVSSWVGHYGALVTHSSVRVRIRLS
glycan array binding signal (z-score) (Gal3S(b1-4)Glc): 1.18
glycan array binding signal (z-score) (Gal3S(b1-4)Glc6S): 2.36
glycan array binding signal (z-score) (Gal3S(b1-4)GlcNAc): 0.201
glycan array binding signal (z-score) (Gal3S(b1-4)GlcNAc6S): 2.01
glycan array binding signal (z-score) (Gal3S6S(b1-4)GlcNAc): 1.22
glycan array binding signal (z-score) (Gal3S6S(b1-4)GlcNAc6S): 6.42
glycan array binding signal (z-score) (Gal4S(b1-4)GlcNAc): -0.013
glycan array binding signal (z-score) (Gal4S6S(b1-4)GlcNAc): 1.17
glycan array binding signal (z-score) (Gal6S(b1-4)Glc): 0.71
glycan array binding signal (z-score) (Gal6S(b1-4)Glc6S): 3.24
glycan array binding signal (z-score) (Gal6S(b1-4)GlcNAc): 0.226
glycan array binding signal (z-score) (GalNAc(a1-3)Gal): -0.465
glycan array binding signal (z-score) (GalNAc(a1-3)GalNAc): -0.52
glycan array binding signal (z-score) [1]: -0.171
glycan array binding signal (z-score) (GalNAc(b1-4)GlcNAc): -0.505
glycan array binding signal (z-score) (Glc(a1-4)Glc): -0.363
glycan array binding signal (z-score) (Glc(a1-6)Glc(a1-6)Glc): 0.044
glycan array binding signal (z-score) (Glc(b1-4)Glc): 0.332
glycan array binding signal (z-score) (Glc(b1-6)Glc): 0.064
glycan array binding signal (z-score) (GlcA(b1-3)Gal): 0.88
glycan array binding signal (z-score) (GlcA(b1-6)Gal): 0.226
glycan array binding signal (z-score) [2]: -0.553
glycan array binding signal (z-score) [3]: -0.578
glycan array binding signal (z-score) [4]: -0.431
glycan array binding signal (z-score) [5]: 0.225
glycan array binding signal (z-score) (GlcNAc(b1-3)Gal): -0.567
glycan array binding signal (z-score) [6]: -0.546
glycan array binding signal (z-score) (GlcNAc(b1-3)Gal(b1-4)Glc): -0.455
glycan array binding signal (z-score) [7]: 0.624
glycan array binding signal (z-score) [8]: -0.193
glycan array binding signal (z-score) (GlcNAc(b1-3)GalNAc): -0.654
glycan array binding signal (z-score) [9]: -0.093
glycan array binding signal (z-score) [10]: -0.482
glycan array binding signal (z-score) [11]: -0.379
glycan array binding signal (z-score) [12]: -0.492
glycan array binding signal (z-score) [13]: -0.2
glycan array binding signal (z-score) [14]: 0.642

Reference: the supplement of paper PMC8728848
